# Read counts are not given, so values of variants with three or more changes are uncertain.
# B1: CPEB3 Ribozyme (parent)
# chain: UAACAGGGGGCCACAGCAGAAGCGUUCACGUCGCAGCCCCUGUCAGAUUCUGGUGAAUCUGCGAAUUCUGCUGUAUAUCUC
# Variants of: B1
# Experiment: self-cleavage, relative activity (ratio to wild type); higher = more cleavage; in vitro, sequencing
# Outline: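 Libraries of CPEB3 self-cleaving ribozyme mutants came from rounds of error-prone PCR and carried barcodes, which DNA sequencing matched to variants. In vitro transcription used T7 RNA polymerase at 37°C for 5 hours, with a further 15 min in DNase I before EDTA stopped the reaction; the ribozymes cleaved during both steps. The RNA was reverse transcribed with template switching and sequenced on Illumina. Relative activity is the cleaved/total read fraction of a variant divided by that of the unmutated ribozyme, averaged over three batches with at least 5 reads.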
row,Variant,self-cleavage
1,A3G A13U A56G,0.89
2,A3G A13U A64U,0.44
3,A3G A13U C23U A28U G36U,0.12
4,A3G A13U C32U A56U U80C,0.06
5,A3G A13U C34A U58C U72C,0.13
6,A3G A13U G16U C34U G73A,0.09
7,A3G A13U G19A A45G A47U,0.39
8,A3G A13U G19A A47U,0.4
9,A3G A13U G19U A47G,0.14
10,A3G A13U G22C A47U G61U,0.11
11,A3G A13U G52U,1.14
12,A3G A13U U25G C29U A64C,0.27
13,A3G A13U U26A A28U,0.61
14,A3G A13U U26A G30A U41C A57U U67C,0.06
15,A3G A13U U26C A45U U80A,0.21
16,A3G A13U U26C U43C A64U,0.41
17,A3G A13U U31C C32G U41C A56G U69A,0.2
18,A3G A13U U31C U58C U72C,0.21
19,A3G A13U U49C C62G U78C,0.29
20,A3G A13U U54C,1.17
21,A3G A13U U54C U58A U69C U80C,0.18
22,A3G A13U U58C,0.32
23,A3G A13U U58C U67C U78C,0.23
24,A3G A13U U80C,1

row,Variant,self-cleavage
1,A3G A15C A35G G63A,1.07
2,A3G A15C A35U U48C U67C,0.3
3,A3G A15C C23U U41C U69A,0.62
4,A3G A15C G16A A57G,0.27
5,A3G A15C G70A,0.22
6,A3G A15G A18G A28G A45U G61C U80A,0.27
7,A3G A15G A18U U43C,0.11
8,A3G A15G A20G A21G G22C U58C,0.24
9,A3G A15G A20G A35G U48C U66C,0.53
10,A3G A15G A20U U25C U26C U31C U54C,0.41
11,A3G A15G A21U U76A,0.3
12,A3G A15G A35U U54C A64U A65G U67C,0.19
13,A3G A15G A45U A75G U78C,0.26
14,A3G A15G C27U U60C U80A,0.12
15,A3G A15G C29U U41C U54C A77G U80C,0.26
16,A3G A15G C59A U67C U72G U74C,0.11
17,A3G A15G C81U,1.09
18,A3G A15G G19C U25C U60C,0.05
19,A3G A15G G19U U58C,0.25
20,A3G A15G G30A G46U A64C U66C,0.08
21,A3G A15G U25A U67C,0.35
22,A3G A15G U25C A28G U49A U60C U72A,0.27
23,A3G A15G U25C U48A G61A A65U A77G,0.07
24,A3G A15G U26C C37U U72A C79U,0.04

row,Variant,self-cleavage
1,A3G A15G U26C G30U C50A A57C,0.21
2,A3G A15G U41A C44A U72A A77G,0.19
3,A3G A15G U41C,0.62
4,A3G A15G U51C G52C A56G,0.61
5,A3G A15G U51C U66A,0.56
6,A3G A15G U67C U74C U78C,0.27
7,A3G A15U A18U A20U C29U G70C U76C,0.18
8,A3G A15U A20C,0.11
9,A3G A15U A35U U41C U60A U72A,0.23
10,A3G A15U A47G G53A A57G A75G,0.57
11,A3G A15U A56G,0.47
12,A3G A15U A64G A65G C68U U69A U74C,0.06
13,A3G A15U C23A U41A U43C U54C U67C,0.07
14,A3G A15U C27U U72C,0.24
15,A3G A15U C37A U41C A56C A64U U72A,0.08
16,A3G A15U G19U U43C U51A A64G U72C,0.22
17,A3G A15U G33A U41G A77U,0.1
18,A3G A15U G42C A56G A64G U66C,0.19
19,A3G A15U U25A U41C U58C G73A,0.04
20,A3G A15U U26C A35U,0.23
21,A3G A15U U31C,0.67
22,A3G A15U U31G U41C U43A A45G,0.14
23,A3G A15U U41A A45G A65G U72C,0.15
24,A3G A15U U41A C50A A56G,0.07

row,Variant,self-cleavage
1,A3G A15U U41C A56C U72A,0.23
2,A3G A15U U48C U80C,0.72
3,A3G A15U U54C A56U,0.38
4,A3G A15U U54G,0.79
5,A3G A15U U72A,0.87
6,A3G A18C C27A,0.39
7,A3G A18C G30A U60A U67C U72G,0.04
8,A3G A18C U76A,0.47
9,A3G A18G A21G U31C,0.67
10,A3G A18G A28U A35G,0.66
11,A3G A18G A35C U48C U49C U72A,0.12
12,A3G A18G A35G U49C A56U A64U,0.28
13,A3G A18G A35U U43A A56G A57G U72A,0.24
14,A3G A18G A45G U60A G73A,0.42
15,A3G A18G A47G,0.85
16,A3G A18G A56U U72A,0.2
17,A3G A18G A65U U72C U76C,0.38
18,A3G A18G A65U U80C,0.36
19,A3G A18G C40G A47U U66C U69C,0.35
20,A3G A18G G30A U54C A56G G63U U80A,0.1
21,A3G A18G G42A,0.6
22,A3G A18G G73A,0.81
23,A3G A18G U25C C29A U41A C68U,0.08
24,A3G A18G U25C U31C G33A U48C,0.09

row,Variant,self-cleavage
1,A3G A18G U26A U51C,0.47
2,A3G A18G U31C U67G U80A,0.14
3,A3G A18G U41C U51A U58A U60A,0.57
4,A3G A18G U43C U67A,0.3
5,A3G A18G U43G,0.75
6,A3G A18G U51A G52U,0.94
7,A3G A18G U51C A56G U58C U80A,0.09
8,A3G A18G U54C U67C,0.34
9,A3G A18G U69C U78C,1.13
10,A3G A18G U72C,0.7
11,A3G A18G U72G,0.49
12,A3G A18G U74C,0.86
13,A3G A18G U76A,0.24
14,A3G A18U A20G A28G G30A C32A U69A,0.26
15,A3G A18U A20G A28G U49A,0.61
16,A3G A18U A21G U25C C32A A45G,0.08
17,A3G A18U A28G U48C U51C A57U,0.13
18,A3G A18U A35U U41A A75G,0.32
19,A3G A18U A45G A64G U67C C81A,0.35
20,A3G A18U A57G,0.47
21,A3G A18U C50U,0.54
22,A3G A18U G30U A35G C62U U72A,0.12
23,A3G A18U G36A U67G,0.07
24,A3G A18U U25C A47G U67A A75U,0.06

row,Variant,self-cleavage
1,A3G A18U U26A A35G U69A A77G,1.29
2,A3G A18U U26A U60A G70A,0.08
3,A3G A18U U26C A65G,0.42
4,A3G A18U U31A C68U U80C,0.43
5,A3G A18U U43C U76C,0.61
6,A3G A18U U48C,0.33
7,A3G A18U U49C A64U,0.37
8,A3G A20C U26C U48G U78A,0.57
9,A3G A20C U26C U58A,0.28
10,A3G A20C U41A A64G U67A,0.21
11,A3G A20G A21G C32U A57G G63A U72C,0.07
12,A3G A20G A21G U72C,0.15
13,A3G A20G A21U A28G G30A U67C,0.09
14,A3G A20G A28G U48C,0.42
15,A3G A20G A28U,0.54
16,A3G A20G A28U U48A U60A,0.21
17,A3G A20G A35C A56U A65U,0.12
18,A3G A20G A35G,1.16
19,A3G A20G A35G U80A,1.32
20,A3G A20G A35U U66C,0.22
21,A3G A20G A64G A65G,0.1
22,A3G A20G C23A U54C C68U U74A,0.06
23,A3G A20G C23U U31C U54C,0.34
24,A3G A20G C29G A65G,0.13

row,Variant,self-cleavage
1,A3G A20G G55A A57G,0.53
2,A3G A20G G55A A65G U72A,0.21
3,A3G A20G U25A G63A,0.31
4,A3G A20G U25C,0.46
5,A3G A20G U25C A28U U49C A57G U69A,0.29
6,A3G A20G U26C A35G U78C,0.94
7,A3G A20G U26C G53A U74C,0.46
8,A3G A20G U31C A35G U67C,0.77
9,A3G A20G U31C C32U A77G,0.17
10,A3G A20G U48C A65U,0.07
11,A3G A20G U48C U54A U78C,0.69
12,A3G A20G U49A A64G,0.43
13,A3G A20G U49C U69A,0.21
14,A3G A20G U51C A57C U72A,0.11
15,A3G A20G U60C U80C,0.57
16,A3G A20G U72A,0.42
17,A3G A20G U74A A75G,1.15
18,A3G A20U A28G U48A U72C,0.06
19,A3G A20U A35G A47G,0.69
20,A3G A20U A47G U67C,0.29
21,A3G A20U A65G G73A U78A,0.79
22,A3G A20U C39U A45G,0.35
23,A3G A20U U25A U60C,0.11

# — the RNAGym collection of RNA variant scans (doi:10.1093/nar/gkz1192)
